Molecules are shown by their SMILES. Out of some 39,000 compounds screened, about 220 (0.56%) showed activity. Some of the results follow.
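Note: static incubation at 37 °C against the wild-type strain, values averaged over two biological replicates.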

The test concerns Escherichia coli K-12 BW25113. The experiment in a line: relative growth (OD600 normalised to plate interquartile mean) (fraction); higher = less growth inhibition, active = 0.2 or less. To be noted: 50 µM; LB; incubation time: overnight (16-24 h).
With `C[C@@H]1CCCCO[C@@H](CN(C)C(=O)CCC(F)(F)F)[C@@H](C)CN([C@H](C)CO)C(=O)c2cc(NC(=O)c3ccccc3)ccc2O1`, the relative growth was inactive: 0.982. Regarding `C[C@@H]1CN([C@H](C)CO)S(=O)(=O)c2ccc(C#Cc3ccccc3)cc2O[C@H]1CN(C)S(=O)(=O)c1cn(C)cn1`, the relative growth is inactive: 1.03. Then `C[C@@]1(O)CCOC(=O)C1`, with inactive: 0.997; and `C[C@H]1CN([C@@H](C)CO)C(=O)c2c(c3ccccc3n2C)-c2ccccc2CO[C@@H]1CN(C)C(=O)Nc1ccccc1C(F)(F)F`, with inactive: 0.983; and `Cc1ccc(S(=O)(=O)Nc2ccc3c(c2)C(=O)N([C@H](C)CO)C[C@@H](C)[C@@H](CN(C)Cc2ccncc2)OCCCC[C@H](C)O3)cc1`, with inactive: 1.01. The value for `CO[C@H](C(=O)N(C)C[C@@H]1OCc2ccccc2-c2c(n(C)c3ccccc23)C(=O)N([C@@H](C)CO)C[C@H]1C)c1ccccc1` was inactive: 1.02; that for `C[C@@H]1CN([C@H](C)CO)C(=O)c2cc(NC(=O)Cc3cn(C)c4ccccc34)ccc2O[C@@H]1CN(C)Cc1ccc(-c2ccccc2)cc1` was inactive: 1; that for `C[C@@H]1CN([C@H](C)CO)C(=O)c2cc(NC(=O)Cc3ccccc3)ccc2O[C@H]1CN(C)C(=O)Nc1ccc(C(F)(F)F)cc1` was inactive: 1.03.

With `C[C@H](CO)N1C[C@H](C)[C@@H](CN(C)S(=O)(=O)c2cccs2)Oc2c(NS(=O)(=O)c3cccs3)cccc2C1=O`, the relative growth is inactive: 0.925. The value for `O=C(N[C@H]1CC[C@@H](CCn2cc(C3(O)CCCC3)nn2)O[C@H]1CO)C1CCOCC1` was inactive: 0.951; that for `C[C@@H]1CN([C@H](C)CO)C(=O)c2cc(NC(=O)CCC(F)(F)F)ccc2O[C@@H](C)CCCCO[C@H]1CN(C)C(=O)Nc1ccc2c(c1)OCO2` was inactive: 1. The value for `COc1ccc(NC(=O)Nc2ccc3c(c2)C(=O)N([C@H](C)CO)C[C@@H](C)[C@@H](CN(C)Cc2ccc(C(=O)O)cc2)OCCCC[C@@H](C)O3)cc1` was inactive: 0.987; that for `NC(=O)c1cc2ccccc2nc1C(N)=O` was inactive: 0.979; that for `C[C@H]1O[C@@H](n2cc(F)c(=O)[nH]c2=O)[C@H](O)[C@@H]1O` was inactive: 0.667. The value for `C[C@H]1CCCCO[C@H](CN(C)C(=O)Nc2cccc3ccccc23)[C@@H](C)CN([C@@H](C)CO)C(=O)c2cc(NS(=O)(=O)c3ccc(F)cc3)ccc2O1` was inactive: 1.03; that for `Cc1noc(C)c1S(=O)(=O)Nc1ccc2c(c1)C(=O)N([C@@H](C)CO)C[C@@H](C)[C@@H](CN(C)S(=O)(=O)c1ccccc1)O2` was inactive: 1.01. On to `Nc1ncnc2c1ncn2[C@@H]1O[C@H](COP(=O)(O)O)[C@@H](O)[C@H]1O`, for which the relative growth was inactive: 1.13. The value for `C[C@@H]1CCCCO[C@@H](CN(C)Cc2ccc(Cl)c(Cl)c2)[C@@H](C)CN([C@H](C)CO)C(=O)c2cc(NC(=O)CCCN(C)C)ccc2O1` was inactive: 0.924; that for `c1ccc2cc3nc4c(ccc5ccccc54)nc3cc2c1` was inactive: 1.04. With `COc1cc(C)ccc1S(=O)(=O)N1[C@@H]2CC[C@@H](C2)[C@H]1c1nc2cccc(OCc3ccccc3)c2[nH]1`, the relative growth was inactive: 1.02. Then `COc1ccc(S(=O)(=O)N(C)C[C@@H]2Oc3ccc(NC(=O)CCC(F)(F)F)cc3CC(=O)N([C@@H](C)CO)C[C@@H]2C)cc1`, with inactive: 1.01; and `C[C@H]1CN([C@@H](C)CO)C(=O)c2cccc(NC(=O)CCCCCC(=O)Nc3ccccc3N)c2O[C@H]1CN(C)Cc1ccc(Cl)c(Cl)c1`, with inactive: 0.99. Then `Cc1noc(C)c1NC(=O)N(C)C[C@H]1Oc2ccc(NC(=O)Cn3cnnn3)cc2CC(=O)N([C@H](C)CO)C[C@@H]1C`, with inactive: 1. Turning to `CO[C@@H](CN(C)S(=O)(=O)c1cccc(Cl)c1)[C@@H](C)CN([C@H](C)CO)S(=O)(=O)c1cccc(Cl)c1`, the relative growth is inactive: 1.02. The value for `COc1ccc(S(=O)(=O)N(C)C[C@@H]2Oc3ccc(NS(=O)(=O)c4ccc(C)cc4)cc3CC(=O)N([C@H](C)CO)C[C@@H]2C)cc1` was inactive: 1.02.

With `C[C@H]1CN([C@@H](C)CO)C(=O)Cc2cc(NC(=O)CCN3CCOCC3)ccc2O[C@@H]1CN(C)S(C)(=O)=O`, the relative growth was inactive: 1.04. The value for `CO[C@@H](CN(C)C(=O)c1ccccc1F)[C@H](C)CN([C@@H](C)CO)S(=O)(=O)c1ccc(Cl)cc1` was inactive: 0.982. The value for `O=C(O)/C=C\C(=O)NCc1cccnc1` was inactive: 0.99; that for `O=C(C[C@@H]1C[C@@H]2c3cc(NC(=O)Nc4ccc(C(F)(F)F)cc4)ccc3O[C@@H]2[C@@H](CO)O1)NC1CCCCC1` was inactive: 1.02; that for `COCCN1C[C@@H]2CN(C(=O)[C@H]3CCCO3)C[C@H]2C1=O` was inactive: 0.971. The value for `C[C@H]1CN([C@@H](C)CO)C(=O)Cc2cc(NC(=O)C3CC3)ccc2O[C@H]1CN(C)Cc1ccc(C(=O)O)cc1` was inactive: 0.99.

In the case of `O=C1O[C@@H](c2ccccc2)[C@@H](c2ccccc2)N2[C@@H](c3ccc(O)cc3)[C@]3(C(=O)Nc4ccccc43)[C@@H](C(=O)N3CCCCCCC3)[C@H]12`, the relative growth is inactive: 1.01. Then `C[C@H](CO)N1C[C@H](C)[C@H](CN(C)S(=O)(=O)c2ccc(F)cc2)OCCCC[C@H](C)Oc2ccc(NS(=O)(=O)c3cn(C)cn3)cc2C1=O`, with inactive: 1.01; and `C[C@H]1CN(C(=O)CSc2nnc3c4ccccc4n(Cc4cccc(Cl)c4)c3n2)CCN1C(=O)c1ccccc1F`, with inactive: 1.03; and `Cc1noc(C)c1NC(=O)Nc1ccc2c(c1)C(=O)N([C@@H](C)CO)C[C@@H](C)[C@@H](CN(C)C(=O)Nc1ccc(C(F)(F)F)cc1)O2`, with inactive: 0.937.

For the molecule `C[C@@H]1CN([C@@H](C)CO)C(=O)c2cc(NC(=O)Nc3cccc4ccccc34)ccc2O[C@@H](C)CCCCO[C@@H]1CN(C)C(=O)Nc1ccccc1`, the relative growth is inactive: 1.01. Then `COCC(=O)N1CC[C@]2(CC1)CN([C@H](CO)c1c2c2ccc(cc2n1C)OC)C(=O)Nc1ccccc1F`, with inactive: 0.947. Then `C[C@H]1CN([C@@H](C)CO)C(=O)c2cc(NC(=O)Cn3cnnn3)ccc2O[C@H]1CN(C)C(=O)Nc1ccc(F)cc1`, with inactive: 0.975.

For the origin of these results see the supplement of paper PMC9446081.
